# Results reported in the supplement of paper PMC12217912.
# The list shows a part of the results. The full chains were built here from the parent and the listed change. Inactive controls read about 0.05.
# B1: TEV protease; numbered along this chain (parent)
# chain: MGESLFKGPRDYNPISSSICHLTNESDGHTTSLYGIGFGPFIITNKHLFRRNNGTLVVQSLHGVFKVKDTTTLQQHLVDGRDMIIIRMPKDFPPFPQKLKFREPQREERICLVTTNFQTKSMSSMVSDTSCTFPSGDGIFWKHWIQTKDGQCGSPLVSTRDGFIVGIHSASNFTNTNNYFTSVPKNFMELLTNQEAQQWVSGWRLNADSVLWGGHKVFMVKPEEPFQPVKEATQL
# Variants of: B1
# Experiment: raw area under fraction-flipped curve 0-4 h after induction (AUC4h, not background-subtracted), DNA-recorder readout of cleavage of the substrate (dimensionless); higher = more cleavage of the substrate by the protease variant
# Conditions: temperature: 34 °C; time window: 0-4 h after rhamnose induction
# Description: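 In vivo DNA recorder in E. coli TOP10(DE3) ΔrhaA at 34 °C. Each TEVp single-site mutant (parent TEVp 0) is paired with a single-site variant of the 7-mer TEVs (canonical ENLYFQ|S). The substrate sits between flexible linkers in a Bxb1-sfGFP-TEVs-SsrA fusion, so cleavage stabilises Bxb1 and speeds flipping of a recombination array, read by NGS. The value is the raw area under the fraction-flipped curve over 0-4 h after rhamnose induction (AUC4h), with ≥20 reads per time point. It is not background-subtracted; inactive controls average about 0.047.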
# 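Note: Bxb1 expression induced with 0.2% (w/v) L-rhamnose at OD600 near 0.5, cultures sampled hourly, flipped fraction per protease–substrate barcode pair counted by paired-end Illumina sequencing.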
Variant,area with substrate ENLYFAS,area with substrate ENLYFCS,area with substrate ENLYFES,area with substrate ENLYFFS,area with substrate ENLYFIS,area with substrate ENLYFMS,area with substrate ENLYFNS,area with substrate ENLYFPS,area with substrate ENLYFRS,area with substrate ENLYFTS,area with substrate ENLYFWS,area with substrate ENLYFKS,area with substrate ENLYFSS,area with substrate ENLYFYS,area with substrate ENLYFDS,area with substrate ENLYFGS,area with substrate ENLYFHS,area with substrate ENLYFLS,area with substrate ENLYFVS
MGESLFKGPRDYNPISSSICHLTNESDGHTTSLYGIGFGPFIITNKHLFRRNNGTLVVQSLHGVFKVKDTTTLQQHLVDGRDMIIIRMPKDFPPFPQKLKFREPQREERICLVTTNFQTKSMSSMVSDTSCTFPSGDGIFWKHWIQTKDGQCGSMLVSTRDGFIVGIHSASNFTNTNNYFTSVPKNFMELLTNQEAQQWVSGWRLNADSVLWGGHKVFMVKPEEPFQPVKEATQL [P155M],0.0616,0.0418,0.0513,0.0685,0.0465,0.0623,0.0505,0.0519,0.0475,0.0402,0.0568,–,–,–,–,–,–,–,–
MGESLFKGPRDYNPISSSICHLTNESDGHTTSLYGIGFGPFIITNKHLFRRNNGTLVVQSLHGVFKVKDTTTLQQHLVDGRDMIIIRMPKDFPPFPQKLKFREPQREERICLVTTNFQTKSMSSMVSDTSCTFPSGDGIFWKHWIQTKDGQCNSPLVSTRDGFIVGIHSASNFTNTNNYFTSVPKNFMELLTNQEAQQWVSGWRLNADSVLWGGHKVFMVKPEEPFQPVKEATQL [G153N],0.0504,0.0589,–,0.0527,–,0.0479,–,–,–,–,0.0501,0.0524,0.0492,0.0621,–,–,–,–,–
MGESLFKGPRDYNPISSSICHLTNESDGHTTSLYGIGFGPFIITNKHLFRRNNGTLVVQSLHGVFKVKDTTTLQQHLVDGRDMIIIRMPKDFPPFPQKLKFREPQREERICLVTTNFQTKSMSSMVSDTSCTFPSGDGIFWKHWIQTKDGHCGSPLVSTRDGFIVGIHSASNFTNTNNYFTSVPKNFMELLTNQEAQQWVSGWRLNADSVLWGGHKVFMVKPEEPFQPVKEATQL [Q151H],0.0682,0.05,0.0716,0.0803,–,0.0582,–,0.0537,0.0495,–,0.0429,0.0669,0.0626,0.0532,0.0741,0.0579,–,–,–
MGESLFKGPRDYNPISSSICHLTNESDGHTTSLYGIGFGPFIITNKHLFRRNNGTLVVQSLHGVFKVKDTTTLQQHLVDGRDMIIIRMPKDFPPFPQKLKFREPQREERICLVTTNFQTKSMSSMVSDTSCTFPSGDGIFWKHWIQTKDGSCGSPLVSTRDGFIVGIHSASNFTNTNNYFTSVPKNFMELLTNQEAQQWVSGWRLNADSVLWGGHKVFMVKPEEPFQPVKEATQL [Q151S],0.0409,0.0587,0.0567,–,0.0469,–,–,0.0698,0.0553,0.0629,–,0.0847,–,0.0624,0.0607,–,0.085,0.0369,–
MGESLFKGPRDYNPISSSICHLTNESDGHTTSLYGIGFGPFIITNKHLFRRNNGTLVVQSLHGVFKVKDTTTLQQHLVDGRDMIIIRMPKDFPPFPQKLKFREPQREERICLVTTNFQTKSMSSMVSDTSCTFPSGDGIMWKHWIQTKDGQCGSPLVSTRDGFIVGIHSASNFTNTNNYFTSVPKNFMELLTNQEAQQWVSGWRLNADSVLWGGHKVFMVKPEEPFQPVKEATQL [F140M],0.0648,0.0507,0.033,–,–,0.0549,0.0572,0.0481,0.0772,–,0.059,0.0595,0.0376,–,–,–,–,–,0.0507
MGESLFKGPRDYNPISSSICHLTNESDGHTTSLYGIGFGPFIITNKHLFRRNNGTLVVQSLHGVFKVKDTTTLQQHLVDGRDMIIIRMPKDFPPFPQKLKFREPQREERICLVTTNFQTKSMSSMVSDTSCTFPSGDGIPWKHWIQTKDGQCGSPLVSTRDGFIVGIHSASNFTNTNNYFTSVPKNFMELLTNQEAQQWVSGWRLNADSVLWGGHKVFMVKPEEPFQPVKEATQL [F140P],0.0623,–,0.0562,0.0598,0.0554,0.0665,0.0492,0.0603,0.0574,0.051,0.0543,–,–,–,–,0.0792,–,0.0527,–
MGESLFKGPRDYNPISSSICHLTNESDGHTTSLYGIGFGPFIITNKHLFRRNNGTLVVQSLHGVFKVKDTTTLQQHLVDGRDMIIIRMPKDFPPFPQKLKFREPQREERICLVTTNFQTKSMSSMVSDTSCTFPSGDGIIWKHWIQTKDGQCGSPLVSTRDGFIVGIHSASNFTNTNNYFTSVPKNFMELLTNQEAQQWVSGWRLNADSVLWGGHKVFMVKPEEPFQPVKEATQL [F140I],0.0568,0.0656,0.0602,0.07,0.0565,0.0598,0.0551,0.0622,0.0529,0.0413,–,0.0492,0.0625,–,0.0561,–,–,0.0567,0.0123
MGESLFKGPRDYNPISSSICHLTNESDGHTTSLYGIGFGPFIITNKHLFRRNNGTLVVQSLHGVFKVKDTTTLQQHLVDGRDMIIIRMPKDFPPFPQKLKFREPQREERICLVTTNFQTKSMSSMVSDTSCTFPSGDGIFWKHWCQTKDGQCGSPLVSTRDGFIVGIHSASNFTNTNNYFTSVPKNFMELLTNQEAQQWVSGWRLNADSVLWGGHKVFMVKPEEPFQPVKEATQL [I145C],0.0584,0.0552,0.0613,0.0549,0.0582,0.0773,0.0739,0.0558,0.0657,0.0572,0.057,–,–,–,–,–,0.0322,–,0.0506
MGESLFKGPRDYNPISSSICHLTNESDGHTTSLYGIGFGPFIITNKHLFRRNNGTLVVQSLHGVFKVKDTTTLQQHLVDGRDMIIIRMPKDFPPFPQKLKFREPQREERICLVTTNFQTKSMSSMVSDTSCTFPSGDGQFWKHWIQTKDGQCGSPLVSTRDGFIVGIHSASNFTNTNNYFTSVPKNFMELLTNQEAQQWVSGWRLNADSVLWGGHKVFMVKPEEPFQPVKEATQL [I139Q],0.0304,0.0471,–,0.0683,0.0621,–,–,0.065,–,0.064,0.055,0.0741,0.0393,0.0666,0.0781,–,–,0.0693,0.0624
MGESLFKGPRDYNPISSSICHLTNESDGHTTSLYGIGFGPFIITNKHLFRRNNGTLVVQSLHGVFKVKDTTTLQQHLVDGRDMIIIRMPKDFPPFPQKLKFREPQREERICLVTTNFQTKSMSSMVSDTSCTFPSGDGNFWKHWIQTKDGQCGSPLVSTRDGFIVGIHSASNFTNTNNYFTSVPKNFMELLTNQEAQQWVSGWRLNADSVLWGGHKVFMVKPEEPFQPVKEATQL [I139N],0.0319,0.0524,0.0625,0.0562,0.0546,0.0658,–,0.0565,0.0682,0.0796,0.0566,0.068,0.0999,0.0511,–,–,–,0.0571,0.0638
MGESLFKGPRDYNPISSSICHLTNESDGHTTSLYGIGFGPFIITNKHLFRRNNGTLVVQSLHGVFKVKDTTTLQQHLVDGRDMIIIRMPKDFPPFPQKLKFREPQREERICLVTTNFQTKSMSSMVSDTSCTFPSGDGIFWKHWIQTKSGQCGSPLVSTRDGFIVGIHSASNFTNTNNYFTSVPKNFMELLTNQEAQQWVSGWRLNADSVLWGGHKVFMVKPEEPFQPVKEATQL [D149S],0.069,–,0.0562,0.0751,0.0564,0.0615,0.0587,0.0629,0.0663,0.0487,0.0578,0.0559,0.0656,0.0605,0.0571,–,0.0702,0.0709,0.0573
MGESLFKGPRDYNPISSSICHLTNESDGHTTSLYGIGFGPFIITNKHLFRRNNGTLVVQSLHGVFKVKDTTTLQQHLVDGRDMIIIRMPKDFPPFPQKLKFREPQREERICLVTTNFQTKSMSSMVSDTSCTFPSGDGIFWKHWIQTKQGQCGSPLVSTRDGFIVGIHSASNFTNTNNYFTSVPKNFMELLTNQEAQQWVSGWRLNADSVLWGGHKVFMVKPEEPFQPVKEATQL [D149Q],0.0558,–,0.0865,0.068,0.0603,–,0.042,0.0557,0.0456,0.0591,–,0.0409,–,–,–,–,0.0727,0.0669,0.0772
MGESLFKGPRDYNPISSSICHLTNESDGHTTSLYGIGFGPFIITNKHLFRRNNGTLVVQSLHGVFKVKDTTTLQQHLVDGRDMIIIRMPKDFPPFPQKLKFREPQREERICLVTTNFQTKSMSSMVSDTSCTFPSGDGIFWKHWIQTKDFQCGSPLVSTRDGFIVGIHSASNFTNTNNYFTSVPKNFMELLTNQEAQQWVSGWRLNADSVLWGGHKVFMVKPEEPFQPVKEATQL [G150F],0.0524,0.0588,–,–,0.0586,0.0719,0.0518,–,–,0.0471,0.0679,0.0646,–,0.0505,0.0562,–,0.055,–,0.0652
MGESLFKGPRDYNPISSSICHLTNESDGHTTSLYGIGFGPFIITNKHLFRRNNGTLVVQSLHGVFKVKDTTTLQQHLVDGRDMIIIRMPKDFPPFPQKLKFREPQREERICLVTTNFQTKSMSSMVSDTSCTFPSGDGIFWKHWIQTKDLQCGSPLVSTRDGFIVGIHSASNFTNTNNYFTSVPKNFMELLTNQEAQQWVSGWRLNADSVLWGGHKVFMVKPEEPFQPVKEATQL [G150L],0.0585,0.058,0.0616,0.0669,0.0537,0.0662,0.0569,0.0573,0.0451,–,0.0507,0.0739,–,0.0453,0.0582,–,0.0547,0.0403,0.0521
MGESLFKGPRDYNPISSSICHLTNESDGHTTSLYGIGFGPFIITNKHLFRRNNGTLVVQSLHGVFKVKDTTTLQQHLVDGRDMIIIRMPKDFPPFPQKLKFREPQREERICLVTTNFQTKSMSSMVSDTSCTFPSGDGIFWKHWINTKDGQCGSPLVSTRDGFIVGIHSASNFTNTNNYFTSVPKNFMELLTNQEAQQWVSGWRLNADSVLWGGHKVFMVKPEEPFQPVKEATQL [Q146N],0.0583,0.0457,0.0709,0.0544,0.0595,0.0663,–,–,0.0249,0.0708,–,0.0693,–,0.0588,–,0.0562,0.0539,0.0496,0.054
MGESLFKGPRDYNPISSSICHLTNESDGHTTSLYGIGFGPFIITNKHLFRRNNGTLVVQSLHGVFKVKDTTTLQQHLVDGRDMIIIRMPKDFPPFPQKLKFREPQREERICLVTTNFQTKSMSSMVSDTSCTFPSGDGIFWKHWIQTNDGQCGSPLVSTRDGFIVGIHSASNFTNTNNYFTSVPKNFMELLTNQEAQQWVSGWRLNADSVLWGGHKVFMVKPEEPFQPVKEATQL [K148N],0.0526,–,0.0662,0.0543,0.0577,–,–,0.0626,–,0.0636,0.0555,0.0487,0.0593,0.063,0.0365,–,0.062,0.0481,0.0208
MGESLFKGPRDYNPISSSICHLTNESDGHTTSLYGIGFGPFIITNKHLFRRNNGTLVVQSLHGVFKVKDTTTLQQHLVDGRDMIIIRMPKDFPPFPQKLKFREPQREERICLVTTNFQTKSMSSMVSDTSCTFPSGDGIFWKHQIQTKDGQCGSPLVSTRDGFIVGIHSASNFTNTNNYFTSVPKNFMELLTNQEAQQWVSGWRLNADSVLWGGHKVFMVKPEEPFQPVKEATQL [W144Q],0.0579,0.0656,–,0.085,0.0647,0.063,0.0722,0.0451,0.0579,0.0639,–,–,0.0699,0.066,–,–,–,0.0647,–
MGESLFKGPRDYNPISSSICHLTNESDGHTTSLYGIGFGPFIITNKHLFRRNNGTLVVQSLHGVFKVKDTTTLQQHLVDGRDMIIIRMPKDFPPFPQKLKFREPQREERICLVTTNFQTKSMSSMVSDTSCTFPSGDGIFWKHLIQTKDGQCGSPLVSTRDGFIVGIHSASNFTNTNNYFTSVPKNFMELLTNQEAQQWVSGWRLNADSVLWGGHKVFMVKPEEPFQPVKEATQL [W144L],0.0652,0.0202,0.0541,–,0.0435,–,0.0734,–,0.0408,0.067,0.0629,–,0.0646,–,0.0623,–,0.0616,0.0564,–
